# Test results from the supplement of paper PMC3334620.
# The full ranking holds about 33,000 sequences; the median of “E-score (-0.5 to 0.5)” is about -0.035, and the highest 2% start at about 0.34. This is one part of the list.
# Molecular target: T1, Mot3 (UniProt P54785)
# T1 sequence: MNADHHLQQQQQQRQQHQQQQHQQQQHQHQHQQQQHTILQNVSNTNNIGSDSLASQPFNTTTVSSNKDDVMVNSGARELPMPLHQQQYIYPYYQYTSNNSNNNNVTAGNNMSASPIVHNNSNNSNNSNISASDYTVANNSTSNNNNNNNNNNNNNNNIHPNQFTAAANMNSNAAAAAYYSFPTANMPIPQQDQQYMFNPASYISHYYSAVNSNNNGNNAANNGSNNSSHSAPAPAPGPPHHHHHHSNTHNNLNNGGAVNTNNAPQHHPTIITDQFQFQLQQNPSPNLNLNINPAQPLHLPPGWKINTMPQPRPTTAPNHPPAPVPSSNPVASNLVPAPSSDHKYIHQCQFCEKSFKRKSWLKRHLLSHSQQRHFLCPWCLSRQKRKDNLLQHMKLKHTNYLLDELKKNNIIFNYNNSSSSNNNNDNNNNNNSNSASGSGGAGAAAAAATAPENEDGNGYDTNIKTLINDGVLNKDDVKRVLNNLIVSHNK
# Assay: PBM E-score (8-mer binding enrichment) (E-score (-0.5 to 0.5)); higher = stronger / more preferred TF binding; most listed sequences are background and not binding sites
# Details: protein concentration: 200 nM; construct: GST-full length
# Method: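 Universal 'all 10-mer' protein binding microarrays (Agilent AMADID 015681) probed with GST-tagged S. cerevisiae TFs (full-length or DBD) made by in vitro transcription/translation (PURExpress), about 100-200 nM. Bound TF was detected with fluorescent anti-GST. Each ungapped 8-mer (which stands for itself and its reverse complement) is scored by the PBM enrichment score (E-score), a modified Wilcoxon-Mann-Whitney statistic from -0.5 to +0.5, computed with the Universal PBM Analysis Suite. Scale: above 0.35 generally sequence-specific binding.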
row,Sequence,PBM E-score
1,CCACGTGA,-0.00983
2,ACAGCGAG,-0.147
3,AAAGTCTC,-0.0117
4,GCAATTGC,0.125
5,TGATTTAA,0.155
6,CGACAGGA,0.0979
7,AAGCTTAG,0.0543
8,ACCGATCG,-0.118
9,AGTCATAT,-0.0173
10,ACATTAAA,0.224
11,CCTGTATA,0.156
12,CGTACTCC,-0.114
13,CCTATTTC,0.241
14,TCTGAGCA,0.0678
15,ACCCTATC,-0.143
16,GAGACGTA,0.0415
17,ATTTGGAG,-0.167
18,GCGCGGTA,-0.0893
19,AGGGATTG,-0.347
20,GTCAGCCA,-0.319
21,ACACTACC,-0.089
22,TACCTCCA,0.13

row,Sequence,PBM E-score
1,AGTGCTAA,-0.304
2,GGCCGCAA,-0.268
3,CGAACGTA,0.0397
4,AATGTCGT,0.172
5,CTGGGTCC,-0.219
6,CCATGTCC,-0.15
7,GCGAACCC,-0.014
8,AGAAAACT,0.0517
9,AGAGACAC,-0.0623
10,ACGTAAAT,0.272
11,ACGGACCC,-0.361
12,ACTTCCTA,-0.09
13,CGTTAGAA,0.0129
14,GCAGCACC,0.00987
15,AGCGCGTC,0.0182
16,ACACTAAA,0.157
17,GTAACTAA,0.0996
18,CGGGTGCA,-0.35
19,CAATGGCC,-0.243
20,CAGTGGGC,-0.203
21,GACATCAC,0.0612
22,CCCCTGCA,0.0448

row,Sequence,PBM E-score
1,AATGACTC,-0.00757
2,CATCACGA,0.0133
3,CTCTGTCC,-0.196
4,GACTTGCC,0.127
5,AATGACAG,-0.0936
6,ACAAGAGA,0.0365
7,CTAGGCAA,0.474
8,ATACATTC,0.209
9,CATATTGA,-0.0254
10,AGCCCGGA,-0.363
11,CATCTAAC,0.0422
12,CGGTGCTA,-0.348
13,CAAACGCA,0.161
14,CATTGGAG,-0.179
15,CTATGCAA,0.0284
16,CTCCAGTA,-0.0917
17,ACAATATA,0.192
18,TAACCAGA,0.0736
19,ACTGCCAT,-0.0362
20,CGCTCCTC,-0.269
21,ATGTACAA,0.332
22,ACGGTACC,0.0191

row,Sequence,PBM E-score
1,AATTCCTA,0.157
2,CTAGGCAG,-0.0742
3,ACATTATC,0.254
4,CGACCAGC,-0.196
5,ACACCGGT,-0.0775
6,ACATGGAA,0.245
7,GAGTCACA,-0.00139
8,CCACAACA,-0.0484
9,GCACATCC,0.0181
10,ACCCTACG,0.0488
11,AGTCATAC,-0.00851
12,ACCGGGAT,-0.301
13,CGTTCCGA,-0.159
14,CGTACCCC,-0.118
15,ACAAAGAT,0.0899
16,AGGCTGTA,0.159
17,ATCCTCTC,-0.349
18,GGGAGGCA,0.364
19,GTCGCAAA,0.0742
20,ACGCTATA,-0.0207
